Data: PubChem BioAssay AID1645882 (National Center for Advancing Translational Sciences (NCATS), 2021)
Among all 16,000 compounds or so, about 120 (0.75%) were called active. Not shown: some 4% with an inconclusive outcome. Calls follow the shape of the dose curve; as a rule, active = well fitted inhibition curve with a large enough effect; inconclusive = small, poorly fitted or top-dose-only effect; inactive = no such curve, though single readings can be large or run the other way. Some of the results follow.

The compounds below were run against Rap guanine nucleotide exchange factor 3 (Homo sapiens) (UniProt O95398) (assay: Validation qHTS for antagonist of cAMP-regulated guanine nucleotide exchange factor 3 (EPAC1)). Details: EPAC1 Rap1B-BODIPY-GDP exchange, fluorescence; series mostly up to 150 µM; activity change, negative = inhibition: at the top concentration.
Method in brief: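 EPAC1 (100 nM) mixed with 250 nM RAP1B-BODIPY-GDP and 50 uM GDP; compounds in concentration series, 5 min at room temperature. Fluorescence (ex 480/em 540 nm) read every 5 min for 30 min; normalized to ATA control and DMSO.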
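Also: plate controls were DMSO for no effect and ATA control for full effect; nearly all actives have a fitted effect of over 75% in size.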

Chain of UniProt O95398 (O95398 whole entry, looked up): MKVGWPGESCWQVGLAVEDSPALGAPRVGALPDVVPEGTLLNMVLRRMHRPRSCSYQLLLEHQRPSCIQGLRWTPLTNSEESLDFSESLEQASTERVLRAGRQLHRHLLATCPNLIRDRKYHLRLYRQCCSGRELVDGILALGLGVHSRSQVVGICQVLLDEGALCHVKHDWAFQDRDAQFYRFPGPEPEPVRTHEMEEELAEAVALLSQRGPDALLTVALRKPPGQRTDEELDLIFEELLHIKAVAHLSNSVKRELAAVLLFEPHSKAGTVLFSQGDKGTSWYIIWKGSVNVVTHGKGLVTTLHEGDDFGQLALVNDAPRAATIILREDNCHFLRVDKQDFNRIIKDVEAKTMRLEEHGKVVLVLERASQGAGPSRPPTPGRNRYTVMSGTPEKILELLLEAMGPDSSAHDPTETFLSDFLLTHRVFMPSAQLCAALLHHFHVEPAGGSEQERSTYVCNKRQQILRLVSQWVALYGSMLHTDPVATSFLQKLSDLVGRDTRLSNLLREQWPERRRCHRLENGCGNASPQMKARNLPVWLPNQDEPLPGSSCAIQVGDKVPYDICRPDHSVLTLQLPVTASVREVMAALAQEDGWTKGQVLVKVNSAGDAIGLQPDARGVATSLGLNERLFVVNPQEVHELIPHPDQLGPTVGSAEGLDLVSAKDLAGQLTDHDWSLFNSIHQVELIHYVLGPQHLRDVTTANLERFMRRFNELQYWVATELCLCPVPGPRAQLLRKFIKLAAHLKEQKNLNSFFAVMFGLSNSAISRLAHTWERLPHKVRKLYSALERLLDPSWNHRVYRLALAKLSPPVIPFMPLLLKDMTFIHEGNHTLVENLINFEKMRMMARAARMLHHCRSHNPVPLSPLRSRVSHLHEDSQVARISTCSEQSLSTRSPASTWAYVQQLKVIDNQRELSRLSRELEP

Activity change, negative = inhibition, inactive:
OCCCc1ccccc1 -12.9%
CO/N=C(/C(=O)N[C@@H]1C(=O)N2C(C(=O)OCOC(=O)C(C)(C)C)=C(C)CS[C@H]12)c1csc(N)n1 9.71%
Cc1noc(C)c1-c1cc(NCc2cccnc2)ncn1 1.14%
COc1nc(C)nc(Cl)c1NC1=NCCN1
CCn1cc(C(=O)O)c(=O)c2cnc(N3CCNCC3)nc21
CCc1nc(CN2CCOc3ccc(C(O)C4CCCCC4)cc3C2)c(C)[nH]1 (configuration not stated) -2.1%
CCCCS(=O)(=O)N[C@@H](Cc1ccc(OCCCCC2CCNCC2)cc1)C(=O)O 12.2%
NCCS(=O)(=O)O
CCN1CCCC1CNCc1cc2c(OC)c(OC)c(OC)cc2nc1N(C)C (configuration not stated) 6.43%
C[C@@](N)(Cc1ccc(O)cc1)C(=O)O 20.3%
N#CC(C#N)=C(N)/C(C#N)=C/c1ccc(O)cc1 6.09% [at 75.8 µM]
COc1cccc(Nc2ncc3nc(C)c(=O)n(C)c3n2)c1 -0.608%
CN[C@@H]1[C@H](O[C@H]2[C@H](O[C@H]3[C@H](O)[C@@H](O)[C@H](N=C(N)N)[C@@H](O)[C@@H]3N=C(N)N)O[C@@H](C)[C@]2(O)C=O)O[C@@H](CO)[C@H](O)[C@H]1O 2.03%
Cc1cccc(C(=O)O)c1O -10.6%
COCC(=O)N1CCC[C@@]2(CCN(c3ccncc3)C2)C1 2.52%
Cn1cc(C(=O)[C@@H]2CCc3nc[nH]c3C2)c2ccccc21 -6.92%
Nc1nc(Cl)nc2c1ncn2[C@H]1C[C@H](O)[C@@H](CO)O1
COCCn1c(=O)c(CCc2ccccc2)nc2cnc(N(C)C)nc21 4.26%
COc1cccc(-n2c(SC)nnc2C2CCN(Cc3nc4ccccc4s3)CC2)c1 -3.44%
CNC(C)[C@@H]1CC[C@@H](N)[C@@H](O[C@H]2[C@H](O)[C@@H](O[C@H]3OC[C@](C)(O)[C@H](NC)[C@H]3O)[C@H](N)C[C@@H]2N)O1 (some centres not stated) 16.4% [at 75.8 µM]
Oc1cccc(-c2c3nc(c(-c4cccc(O)c4)c4ccc([nH]4)c(-c4cccc(O)c4)c4nc(c(-c5cccc(O)c5)c5ccc2[nH]5)CC4)C=C3)c1
C=C1CCC[C@]2(C)C[C@H]3OC(=O)[C@H](CNCCc4ccccc4OC)C3CC12 (some centres not stated) -5.64%
COc1cccc(CN2CCC3(CC2)c2ccccc2[C@@H](NC(=O)c2ccccc2OC)[C@@H]3O)c1 6.61%
CC(=O)Oc1ccc(C)cc1 1.32%
COc1ccc(CN2C[C@H](Sc3nc4ccccc4[nH]3)C[C@H]2C(=O)N2CCCN(C)CC2)cc1C 6.86%
CC1(C)CO[C@@H](CC(=O)O)CN1 17.2%
COc1cc(-c2noc(C)c2C#CCCN2C(=O)c3ccccc3C2=O)cc(OC)c1OC 8.84%
O=C1CCN(CCc2ccccc2)CCN1[C@H](COc1ccccc1)c1ccccc1 -3.33%
COc1cccc2c1[C@@H]1CN(CCCCn3c(=O)[nH]c4c(sc5ncc(-c6ccccc6)nc54)c3=O)C[C@@H]1CO2 -11.2% [at 75.8 µM]
COc1ccc(C(=O)N2CCC[C@@]3(CCN(c4ccccn4)C3)C2)cc1 16.8%
CCCCCCCCCCCCCCCC(=O)OC[C@@H](O)[C@H]1OC[C@H](O)[C@H]1O 24.8%
NCCNC(=O)c1ccc(Cl)cn1 -4.67%
O=C(c1ccc2c(c1)OCO2)N1CCOc2ccc(CN3CCC(Oc4cccnc4)CC3)cc2C1 8.84%
O=C(/C=C/c1ccc(O)c(O)c1)O[C@H]1C[C@@](O)(C(=O)O)CC(O)C1O (some centres not stated) 7.75%
FC(F)(F)C(F)(F)C(F)(F)C(F)(F)C(F)(F)C(F)(F)F 16.5%
CC(C)C(NS(C)(=O)=O)c1nnc2n1CCN(Cc1cccc3ncccc13)CC2 (configuration not stated) 9.89%
CC(C)NC(=O)N1CCC2(CC1)CCN(C(=O)c1ccco1)CC2 33%
O=C(c1cc(C(F)(F)F)cc(C(F)(F)F)c1)N1CCC2(CC1)CN(c1ccccn1)C2 -14.1%
COc1cccc2c1C(=O)c1c(O)c3c(c(O)c1C2=O)C[C@@](O)(C(=O)CO)C[C@@H]3O[C@H]1C[C@H](N)[C@H](O)[C@H](C)O1
Cc1ncc2c(c1CNC(=O)CN1CCCC1)CCN(C(=O)c1ccc(F)cc1F)C2 13.5%
Cn1cnc2c(NCc3ccccc3)nc(NCCO)nc21
O=C(/C=C/c1ccccc1)c1ccc(O[C@H]2OC(CO)C(O)C(O)C2O)cc1O (some centres not stated) 21.3%
CC(=O)N1CCC[C@@]2(CCN(c3ccncc3)C2)C1 2.93%
CC(C)NC(=O)N1CC[C@@]2(CCCN(S(C)(=O)=O)C2)C1 15%
CC1(C)S[C@@H]2[C@H](NC(=O)[C@H](N)c3ccc(O)cc3)C(=O)N2[C@H]1C(=O)O -6.8%
CCOC(=O)C1=C[C@@]2(CC)CCCN3CCc4c(n1c1ccccc41)C32 (some centres not stated) 1.81%
O=C(NCCc1ccccn1)C1CC12CCN(C(=O)c1ccccc1Cl)CC2 (configuration not stated) 26%
Cc1cnc(CNc2ccnc(-c3ccoc3)n2)cn1 4.3%
CCc1cc(S(=O)(=O)O)c2cc(C(C)C)cccc1-2 4.24%
COc1cc(-c2oc3cc(O)ccc3c(=O)c2O)ccc1O -13.2%
OCCOCCN1CCN(C2=Nc3ccccc3Sc3ccccc32)CC1
CCNc1ncc2nc(C)c(=O)n(Cc3ccc(F)cc3)c2n1 -7.06%
Cc1cc(O)c(C)c(O)c1C(=O)O 8.73%
CC[C@@H]1[C@H]2CCCC(=O)N3CC[C@@H](C[C@@H]1Nc1ccccc1)[C@@H]23 16.8%
N=C(N)c1ccc(OCCCCCOc2ccc(C(=N)N)cc2)cc1
COc1ccc(C(=O)N2CCC3(CCN(C(=O)Nc4ccccc4)CC3)CC2)cc1 7.67%
COc1cccc(CN2CCCC(c3nc(C)ncc3-c3ccc(F)cc3)C2)c1OC (configuration not stated) 1.33%
c1ccc(CNc2ncncc2-c2cccnc2)cc1 21.7%
COC(=O)Nc1nc2ccc(C(=O)c3ccccc3)cc2[nH]1
COc1cccc(-c2cncnc2NCc2cccc(C)c2)c1 -10.7%
NC(=O)C1c2ccccc2CCc2ccccc21 1.19%
Cn1c(NCCN(CCO)CCCc2ccc([N+](=O)[O-])cc2)cc(=O)n(C)c1=O 13.4%
N=C(N)SCCc1ccc(OCc2ccc([N+](=O)[O-])cc2)cc1 -9.83%
Cc1noc(C)c1-c1nccc(NC2CC2)n1 15.4%
c1ccc2sc(SSc3nc4ccccc4s3)nc2c1 13.2%
COCC(=O)Nc1cc(C(=O)N2CC3CCCC2C3)c2c(c1)nc(-c1ccncc1)n2C (configuration not stated) -9%
Cc1cccc2c(N3CCCC3)nc(CNS(=O)(=O)c3ccccc3F)nc12 -0.903%
O=C(Nc1cccc(F)c1)N1CCCC2(CCN(C(=O)c3ccncc3)CC2)C1 -19.4%
CC(=O)OCC(=O)C1CCC2C3CC=C4CC(O)CC[C@@]4(C)C3CC[C@]12C (some centres not stated) 7.91%
Cc1ccc(Nc2c(F)cccc2Cl)c(CC(=O)O)c1 13.6%
CCCCN1CC[C@H]2C=CC[C@@H](C(=O)Nc3ccccc3)[C@H]2C1=O 9.14%
COc1ccccc1C(=O)Nc1cccc(N2CCC(NCc3cnn(-c4ccccc4)n3)CC2)c1 2.9%
CN1CC[C@@]2(CCCN(S(=O)(=O)c3ccccc3)C2)C1 -9.91%
CC(NC(=O)C1CCOCC1)c1nnc2n1CCN(Cc1ccc3cccnc3c1)CC2 (configuration not stated) 9.89%
CC(=O)c1ccc[n+](CC(=O)c2ccc(F)cc2)c1 10.5%
O=C(c1cnccn1)N1CCC2(CC1)CCN(c1ncccn1)CC2 8.65%
CCCCNC(=O)O[C@@H]1C[C@H]2CCCC(=O)N3CC[C@@H](C1)[C@@H]23 9.76%
CC(C)(CO)[C@@H](O)C(=O)NCCCC(=O)O -6.28%
NC(=NCc1ccccc1)NC(=O)c1nc(Cl)c(N)nc1N
C1=Cc2ccccc2/C1=C\c1ccc2c(c1)OCO2 -20.1%
O=C1[C@H](Cc2ccccc2)NC/C=C\C[C@@H](c2ccco2)N1Cc1ccccc1 9.88%
COc1cc(CN2CCOc3ccc(CN4CCC(Oc5cccnc5)CC4)cc3C2)ccc1F 5.21%
Nc1nc(N)c2nc(CNc3ccc(C(=O)NC(CCC(=O)O)C(=O)O)cc3)cnc2n1 (configuration not stated) 1.43% [at 75.8 µM]
COc1ccc(-n2c(=O)c(-c3cccs3)nc3cncnc32)cc1 21.2%
CCn1nc(C)cc1C(=O)NCCN1Cc2ccccc2OC(c2ccccc2F)C1 (configuration not stated) -9.65%
Fc1ccc(C(c2ccc(F)cc2)N2CCN(C/C=C/c3ccccc3)CC2)cc1
COC(=O)C1=C(C)NC(C)=C(C(=O)OCC(C)=O)C1c1ccccc1[N+](=O)[O-] (configuration not stated) 17.7%
c1ccc2c(NCCN3CCOCC3)nc(-c3ccoc3)nc2c1 4.42%
CN1CCc2c(c3ccccc3n2Cc2ccccc2)C1
COc1cc(-c2noc(C)c2C#CC2(O)CCCCC2)cc(OC)c1OC -29%
COc1ccc(NC2=Nc3ccccc3N[C@@]23C[C@H]2CCCC(=O)N4CC[C@@H](C3)[C@@H]24)cc1 6.11%
C[N+]1(CCCCC[N+]2(C)CCCC2)CCCC1
Cc1nc2cncnc2n(Cc2ccc(F)cc2)c1=O 17.7%
Cc1noc(C)c1-c1cncnc1-n1ccnc1 3.01%
O=c1cnc2cnc(OCc3ccccc3)nc2n1CCc1ccccc1 -14.6%
C[C@H](CCC(=O)NCCS(=O)(=O)O)C1CC[C@H]2C3CC[C@@H]4C[C@H](O)CC[C@]4(C)C3C[C@H](O)[C@]12C (some centres not stated) -1.03%
COCCNc1cc(-c2ccccc2C)ncn1 -13.6%
CSc1ncccc1C(=O)N1CCc2nnc(C(NC(=O)c3ccoc3)C(C)C)n2CC1 (configuration not stated) 6%
O=C(Nc1ccccc1)c1cc([N+](=O)[O-])ccc1Cl
COC(=O)c1c(OCc2ccccn2)cc(=O)n2c1CCN(C(=O)c1n[nH]c3c1CCCC3)CC2 8.01%
COc1ccc(-c2oc3cc(O[C@@H]4OC(CO)C(O)C(O)C4O)c(OC)c(O)c3c(=O)c2OC)cc1O (some centres not stated) 14.8%
CN1CCCC2(CCN(C(=O)c3cc(C(F)(F)F)cc(C(F)(F)F)c3)CC2)C1 9.5%
